From PubChem BioAssay AID485297 (National Center for Advancing Translational Sciences (NCATS), 2010)
Among all 320,000 compounds or so, about 9,100 (2.8%) were called active. The inconclusive results got no clear call from the source; some entries with a clear call stand among them for comparison. Calls follow the shape of the dose curve; as a rule, active = well fitted activation curve with a large enough effect; inconclusive = small, poorly fitted or top-dose-only effect; inactive = no such curve, though single readings can be large or run the other way. No potency is given beside an inconclusive call; the fits are too rough.

Assay: qHTS Assay for Rab9 Promoter Activators; also: nearly all actives have a fitted effect of over 60% in size
Settings: Huh7 Rab9 promoter-luciferase reporter, luminescence, 24 h; series mostly up to 9.22 µM
In short: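 Steps: seed 1500 Huh7 Rab9-luc cells per well, rest 2 h at 37 °C; add compound in DMSO; incubate 24 h; add luciferase reagent, 10 min ambient; read luminescence.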
Potency is read from the fitted curve at half-maximal effect; tags tell the direction and shape of the fitted curve.

| Compound | Potency |
| --- | --- |
| O=C(Nc1ccc(Oc2ccc(Cl)cc2)cc1)c1ncn[nH]1 | inactive |
| COc1ccc2cc(-c3ccccc3F)ncc2c1 | inconclusive [activator, partial curve] |
| CCC(C)C(=O)Nc1cc(Cl)ccc1C(=O)O (stereo not drawn) | inconclusive [activator, single point] |
| O=C(CSc1nnc(-c2cccnc2)o1)Nc1ccccn1 | active: 3980 nM |
| O=C(Nc1ccc2c(c1)OCO2)c1ccc(CO)cc1 | active: 2820 nM |
| Cc1cc(/C=C2\SC(=S)NC2=O)c(C)n1-c1ccc(O)cc1 | active: 1780 nM |
| COc1ccc(-c2nnc(SCC#N)o2)cc1 | inactive |
| Cc1scc(C(=O)N/N=C/c2ccco2)c1C | active: 2820 nM |
| CCCCOc1ccc(-c2ncc(N)cn2)cc1 | active: 2820 nM |
| CC(=O)Nc1cccc(C(=O)N/N=C/c2ccc(F)cc2)c1 | active: 1410 nM |
| O=C(Nc1ccc(Cl)cc1)c1ccc(-c2ccccn2)s1 | active: 2820 nM |
| COc1ccc(NC(=O)Nc2ccc(Cc3ccncc3)cc2)cc1OC | inconclusive [activator, single point] |
| O=C(Cc1ccccc1[N+](=O)[O-])N1CCc2ccccc2C1 | inconclusive [activator, partial curve] |
| O=Nc1c2cc(-c3ccccc3)[nH]nc-2c2ccccc12 | inconclusive [activator, single point] |
| CC(C)Oc1ccc(C2CC(=O)N(c3cccc(/C=C/C(=O)O)c3)C2=O)cc1 (stereo not drawn) | inactive |
| CCOC(=O)c1cnn2c(C)cc(-c3ccccc3)nc12 | active: 3550 nM |
| O=C(Nc1nc2ccccc2s1)c1cc2c(s1)-c1ccccc1OC2 | inconclusive [activator, single point] |
| CC(=O)Oc1ccc2c(=O)c(-c3ccccc3)coc2c1 | inconclusive [activator, single point] |
| CN(C(=O)c1cccc(NC(=O)c2cccs2)c1)c1ccccc1 | inactive |
| COc1ccc(-c2cc3ccc(OCC(=O)NCC4CCC(C(=O)O)CC4)cc3oc2=O)cc1 (stereo not drawn) | active: 4470 nM |
| Cc1ccccc1OCC(=O)Nc1cccc(NC(=O)c2ccco2)c1 | inconclusive [activator, single point] |
| Cc1ccc2c(C)c(C(=O)N3CCCC(C(N)=O)C3)oc2c1C (stereo not drawn) | inconclusive [activator, single point] |
| CCCCCC(=O)Nc1nc2ccccc2[nH]1 | inconclusive [activator, single point] |
